Experimental data taken from PMC4336329 (PLoS ONE, 2015).
Out of some 310,000 compounds screened, about 14,000 (4.5%) showed an effect of 50% or more. Effects have a minus sign here. The list shows a part of the results.

The compounds below were run against human ether-à-go-go-related gene (hERG) potassium channel (human, UniProt Q12809) (assay: primary screen, population patch clamp on CHO cells stably expressing hERG).
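Note: peak tail current of the secondary pulse compared with the same well before compound.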

human ether-à-go-go-related gene (hERG) potassium channel, sequence (Q12809 whole entry, looked up): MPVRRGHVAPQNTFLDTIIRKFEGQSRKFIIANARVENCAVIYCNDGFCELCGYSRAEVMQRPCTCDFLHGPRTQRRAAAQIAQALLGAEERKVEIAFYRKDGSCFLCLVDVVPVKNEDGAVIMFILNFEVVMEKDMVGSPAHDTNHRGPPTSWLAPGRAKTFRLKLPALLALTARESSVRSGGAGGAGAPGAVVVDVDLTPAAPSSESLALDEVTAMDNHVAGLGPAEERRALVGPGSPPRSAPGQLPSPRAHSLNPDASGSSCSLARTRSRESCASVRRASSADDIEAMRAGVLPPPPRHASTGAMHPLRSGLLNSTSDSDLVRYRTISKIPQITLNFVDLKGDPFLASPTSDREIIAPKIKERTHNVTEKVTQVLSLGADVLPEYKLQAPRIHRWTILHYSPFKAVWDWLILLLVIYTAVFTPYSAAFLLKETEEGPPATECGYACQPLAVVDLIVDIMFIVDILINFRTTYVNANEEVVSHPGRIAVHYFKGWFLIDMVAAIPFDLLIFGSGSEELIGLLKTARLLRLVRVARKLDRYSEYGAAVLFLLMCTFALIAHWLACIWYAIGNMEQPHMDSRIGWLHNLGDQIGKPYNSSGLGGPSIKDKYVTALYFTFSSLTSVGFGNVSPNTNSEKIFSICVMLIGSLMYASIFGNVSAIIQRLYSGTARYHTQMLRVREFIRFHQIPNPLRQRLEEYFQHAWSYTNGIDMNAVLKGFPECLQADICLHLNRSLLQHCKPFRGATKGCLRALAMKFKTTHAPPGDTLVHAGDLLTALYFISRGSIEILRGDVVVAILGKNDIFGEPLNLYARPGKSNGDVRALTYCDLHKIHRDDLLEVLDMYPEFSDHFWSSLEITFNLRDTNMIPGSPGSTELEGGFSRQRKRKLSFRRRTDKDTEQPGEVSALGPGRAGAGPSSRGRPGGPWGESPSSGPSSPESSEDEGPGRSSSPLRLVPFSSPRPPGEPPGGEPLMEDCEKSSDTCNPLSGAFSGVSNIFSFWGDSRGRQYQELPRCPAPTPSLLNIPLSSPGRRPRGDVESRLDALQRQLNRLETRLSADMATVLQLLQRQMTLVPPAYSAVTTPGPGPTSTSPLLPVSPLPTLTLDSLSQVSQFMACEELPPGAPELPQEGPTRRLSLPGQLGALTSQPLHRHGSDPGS

Row | Compound | hERG current change (%, negative = inhibition) at 10uM
1 | CCCCNC(=O)n1c(SC)nc2ccccc21 | 3.02%
2 | Cc1ccc(NC(=O)CN(C)S(=O)(=O)c2cccc3nsnc23)cc1Cl | -18.2%
3 | Cc1ccc(N2CC(C(=O)N3CCC(C(=O)NCCCOC(C)C)CC3)CC2=O)cc1 (stereo not shown) | 12%
4 | Cl.O=C(c1ccco1)N1CCN(CCOCCOc2cccc3ccccc23)CC1 | -62.5%
5 | CCc1c(C)nc2ncnn2c1N1CCCC(C(=O)NCc2ccco2)C1 (stereo not shown) | -30.1%
6 | Cn1ccnc1P(=S)(c1nccn1C)N1CCOCC1 | 7.32%
7 | CC1CCN(c2nc(N3CCCCC3)nc(N3CCCCC3)n2)CC1 | 9.57%
8 | Cc1cccc(C)c1OCC(O)CNC(C)c1ccccc1.Cl (stereo not shown) | -13.7%
9 | CC(C)(CNC(=O)Cc1ccc(Cl)cc1Cl)N1CCOCC1 | 5.05%
10 | COc1ccc(NC(=O)CN(C)C(=O)C(C)N2C(=O)c3ccccc3C2=O)cc1 (stereo not shown) | -8.54%
11 | COc1ccccc1OCCNC(=O)CCNC(=O)c1ccccc1Cl | 16.5%
12 | O=C(CCCn1c(=O)[nH]c2ccsc2c1=O)NCc1cccs1 | 4.11%
13 | Cc1ccc(O)c(CO)n1 | 4.86%
14 | O=C(COC(=O)c1c2c(nc3ccccc13)CCCC2)c1cccs1 | 1.14%
15 | COc1ccc(N(CC(=O)Nc2ccc(OC)c(Cl)c2)S(=O)(=O)c2c(C)noc2C)cc1 | -1.44%
16 | Oc1ccc(N=Nc2ccccc2-c2nn[nH]n2)c(O)c1 | -4.56%
17 | Cc1ccc(-c2cc(C(=O)N3CC(C)CC(C)C3)c3ccccc3n2)o1 (stereo not shown) | -16.6%
18 | CCOc1ccc(N2CC(C(=O)Nc3cccc(S(=O)(=O)NC4=NCCC4)c3)CC2=O)cc1 (stereo not shown) | -3.05%
19 | CC(=O)N1c2c(cc(Br)cc2S(=O)(=O)NCc2ccccc2)CC1C (stereo not shown) | -35.5%
20 | O=C(Nc1ccc(Nc2ccccc2)cc1)C1CC1 | -6.15%

Row | Compound | hERG current change (%, negative = inhibition) at 10uM
21 | COc1ccccc1-n1c(-c2ccc(NS(C)(=O)=O)cc2)n[nH]c1=S | 19.1%
22 | CSC1=N/C(=C\c2ccccc2Cl)C(=O)N1N(C)C | -0.445%
23 | Cn1c(CN2CCN(c3ccc(Cl)cc3)CC2)nc2ccccc21 | -14.3%
24 | CN(/N=C/c1cc(Cl)ccc1O)C1=NS(=O)(=O)c2ccccc21 | 23.2%
25 | CCOc1ccccc1-c1cc(C(=O)N/N=C/c2ccc(O)c(OC)c2)c2ccccc2n1 | -31.1%
26 | CC1CCCCC1NC(=O)CNC(=O)c1ccco1 (stereo not shown) | 3.15%
27 | Nc1c(C(=O)NCc2ccc3c(c2)OCO3)nnn1-c1ccc(OC(F)(F)F)cc1 | -0.473%
28 | COCCCNC(=O)C(=O)NCC1CCCN1S(=O)(=O)c1cccs1 (stereo not shown) | -9.53%
29 | COc1ccc(-c2onc(C)c2-c2ccc3c(c2)OCCO3)c(O)c1 | -17.4%
30 | Cc1cccc(NC(=O)COc2nsnc2N2CCOCC2)c1 | -0.66%
31 | COc1cc(NC(=O)c2cccc(C)c2)c(OC)cc1NC(=O)CN1CCCCC1 | -19.7%
32 | CC(=O)Nc1ccc(S(=O)(=O)Nc2ccc(S(=O)(=O)N3CCCC3)cc2)cc1 | 3.62%
33 | CC(=O)Nc1ccc(SCC(=O)N(CCC#N)c2cc(C)cc(C)c2)cc1 | -4.49%
34 | CC1CCCCC1NC(=O)Cc1ccc(S(=O)(=O)N2CCOCC2)s1 (stereo not shown) | -22.3%
35 | CCN(CCNCC(O)COc1ccccc1C(C)C)c1cccc(C)c1.O=C(O)C(=O)O (stereo not shown) | -45.4%
36 | CC(=O)Nc1ccc(-c2csc(NCCc3ccccc3)n2)cc1 | 14.8%
37 | CCOC(=O)c1c(C)c(C(=O)NCc2ccccc2OC)c(C)n1C | -13.8%
38 | CC(C)(C)c1cc(CN(CCO)CCO)c(O)c(C(C)(C)C)c1 | -42.3%
39 | Cc1ccc(OCC(=O)Oc2c(C)cccc2C)cc1C | 14.9%
40 | CC(C)(C)C(=O)NC1CC2CCCC(C1)N2C(=O)Nc1ccccc1F (stereo not shown) | 22.5%

Row | Compound | hERG current change (%, negative = inhibition) at 10uM
41 | O=C(NC(=S)NCCCN1CCOCC1)c1ccc(Br)cc1 | -42.9%
42 | Cc1nn(-c2ccccc2)c(Cl)c1C(=O)N(C)c1nc(-c2ccc(F)cc2)cs1 | 15.9%
43 | Cc1ccc(C(=O)OCC(=O)NCC(F)(F)F)cc1C | 5.6%
44 | Cl.O=C(NC1CCN(Cc2ccccc2)CC1)c1cccc(OC(F)F)c1 | -74.1%
45 | CCCCn1nc(C(=O)O)ccc1=O | 20.4%
46 | COc1ccccc1CNC(=O)C(C)n1cccc1C(=O)c1ccccc1 (stereo not shown) | 2.18%
47 | COc1ccc(-n2c(C)cc(C)c(C(C)=O)c2=S)cc1 | -2.39%
48 | CC[C@@]12C(=O)N(c3cccc(Cl)c3)C(=O)N1[C@H](c1ccc(Br)cc1)[C@@H]1C(=O)N(C(C)(C)C)C(=O)[C@@H]12 | -6.81%
49 | CCOc1ccccc1N1CCN(C(=O)NC(C)c2ccc(F)c(F)c2)CC1 (stereo not shown) | 11.9%
50 | CCOC(=O)NN1C(=O)c2ccccc2NC1c1ccc(OC)cc1 (stereo not shown) | 9.73%
51 | O=C(Nc1ccc2oc(=O)ccc2c1)c1ccc(-c2ccc(Cl)cc2)o1 | 3.37%
52 | COc1ccc(S(=O)(=O)N(CC(=O)Nc2cc(C)on2)Cc2ccccc2)cc1 | 16.8%
53 | Cc1cc(NC(=O)C(C)C)ncc1NC(=O)CCc1ccccc1 | -3.36%
54 | COc1ccc(OCCOC(=O)c2[nH]c(C)c(C(C)=O)c2C)cc1 | 10.2%
55 | O=c1cc(-c2ccc(Cl)cc2)[nH][nH]1 | -1.64%
56 | COc1ccc(C[C@@H]2CN3C(=NC[C@@H]3C)N2C[C@H](C)NC(=O)CCC2CCCCC2)cc1 | -67.4%
57 | Cn1c(C(=O)N2CCCc3ccccc32)cc2sccc21 | -14.8%
58 | COc1ccc2[nH]cc(/C=C/c3cc[n+](C)cc3)c2c1.[I-] | 14.9%
